Among the data in patent publication US20150247135A1 (LIGACEPT, published 2015) are Kd values, retold here.

For assay [1], the target named is T1, TGFα (UniProt P01135 40-89).
T1 construct: Soluble ligand incubated with the coated traps; also called Transforming Growth Factor α
Briefly: trap coated on 96 well plate, varying TGFα, detection antibody; Std Error Kd 116.3 nM. The method, then:
(§1) Purified trap molecules were coated on 96 well plates and incubated with either TGFα or HRG1β. Then detection antibodies against TGFα or HRG1β were used to measure the affinity (Kd) and amount of bound ligand (Bmax).
(§2) Traps were coated on 96 well plates and incubated with varying concentrations of either TGFα or HRG1β. Detection antibodies against TGFα or HRG1β were used to measure the affinity (Kd) and amount of bound ligand (Bmax).

Assay [2] has as its target T2, HRG1β (UniProt Q02297-6 177-241, limits assumed).
T2 construct: Soluble ligand incubated with the coated traps; also called heregulin
T2 sequence (looked up): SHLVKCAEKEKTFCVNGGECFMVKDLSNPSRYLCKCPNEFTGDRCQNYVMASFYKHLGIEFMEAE
Briefly: trap coated on 96 well plate, varying HRG1β, detection antibody; Std Error Kd 3.932 nM. Here is the method: as §1, §2

For assay [3], the target named is T1, TGFα. In words: trap coated on 96 well plate, varying TGFα, detection antibody; Std Error Kd 266.2 nM. Here is the method:
as §1, §2

Assay [4] deals with T2, HRG1β. Briefly: trap coated on 96 well plate, varying HRG1β, detection antibody; Std Error Kd 1.255 nM. Here is the method:
as §1, §2

In assay [5] the target is T2, HRG1β. Briefly: trap coated on 96 well plate, varying HRG1β, detection antibody; Std Error Kd 2.055 nM. The method, then:
as §1, §2

For assay [6], the target named is T1, TGFα. In words: trap coated on 96 well plate at one half of the amount, varying TGFα, detection antibody; Std Error Kd 1208 nM. The method, then:
as §1, §2

The target of assay [7] is T1, TGFα. Briefly: trap coated on 96 well plate, varying TGFα, detection antibody; Std Error Kd 149 nM. The method, then: as §1, §2
In assay [8] the target is T2, HRG1β. Briefly: trap coated on 96 well plate, varying HRG1β, detection antibody; Std Error Kd 3.375 nM. The method, then: as §1, §2
Assay [9] has as its target T2, HRG1β. In words: trap coated on 96 well plate, varying HRG1β, detection antibody; Std Error Kd 8.175 nM. Here is the method:
as §1, §2

For assay [10], the target named is T2, HRG1β. Briefly: trap coated on 96 well plate at one half of the amount, varying HRG1β, detection antibody; Std Error Kd 2.366 nM. Here is the method: as §1, §2
Assay [11] addresses T1, TGFα. Briefly: trap coated on 96 well plate, varying TGFα, detection antibody; Std Error Kd 250.5 nM. Here is the method:
as §1, §2

T1 sequence (P01135 40-89 limits assumed): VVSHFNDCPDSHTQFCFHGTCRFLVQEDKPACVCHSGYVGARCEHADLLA

B1: E1/E4-Fc (construct from Example 19: ErbB4 […], ErbB1 […], fused to IgG2Fc) (Fc fusion)
chain: QSVCAGTENKLSSLSDLEQQYRALRKYYENCEVVMGNLEITSIEHNRDLSFLRSVREVTGYVLVALNQFRYLPLENLRIIRGTKLYEDRYALAIFLNYRKDGNFGLQELGLKNLTEILNGGVYVDQNKFLCYADTIHWQDIVRNPWPSNLTLVSTNGSSGCGRCHKSCTGRCWGPTENHCQTLTRTVCAEQCDGRCYGPYVSDCCHRECAGGCSGPKDTDCFACMNFNDSGACVTQCPQTFVYNPTTYQMDVNPEGKYSFGATCVKKCPR[about 250 residues omitted]VECPPCPAPPVAGPSVFLFPPKPKDTLMISRTPEVTCVVVDVSHEDPEVQFNWYVDGMEVHNAKTKPREEQFNSTFRVVSVLTVVHQDWLNGKEYKCKVSNKGLPAPIEKTISKTKGQPREPQVYTLPPSREEMTKNQVSLTCLVKGFYPSDIAVEWESNGQPENNYKTTPPMLDSDGSFFLYSKLTVDKSRWQQGNVFSCSVMHEALHNHYTQKSLSLSPGK
notes: also called E1/E4-Fc BATCH1; E1/E4-Fc BATCH 2
Usually Kd stands for the equilibrium constant for the complex coming apart. Higher therefore signals a looser complex. Regarding B1, the Kd stood at 345 nM with TGFα [1]; 23.8 nM with HRG1β [2]; 677 nM in the assay with TGFα [3]; 13.1 nM in the assay with HRG1β [4]; 17.3 nM with HRG1β [5].

B2: E1/E4-MFc (construct from Example 20: ErbB4 […], ErbB1 […], fused to IgG2Fc with C226S and C229S in the hinge) (Fc fusion)
chain: QSVCAGTENKLSSLSDLEQQYRALRKYYENCEVVMGNLEITSIEHNRDLSFLRSVREVTGYVLVALNQFRYLPLENLRIIRGTKLYEDRYALAIFLNYRKDGNFGLQELGLKNLTEILNGGVYVDQNKFLCYADTIHWQDIVRNPWPSNLTLVSTNGSSGCGRCHKSCTGRCWGPTENHCQTLTRTVCAEQCDGRCYGPYVSDCCHRECAGGCSGPKDTDCFACMNFNDSGACVTQCPQTFVYNPTTYQMDVNPEGKYSFGATCVKKCPR[about 250 residues omitted]VESPPSPAPPVAGPSVFLFPPKPKDTLMISRTPEVTCVVVDVSHEDPEVQFNWYVDGMEVHNAKTKPREEQFNSTFRVVSVLTVVHQDWLNGKEYKCKVSNKGLPAPIEKTISKTKGQPREPQVYTLPPSREEMTKNQVSLTCLVKGFYPSDIAVEWESNGQPENNYKTTPPMLDSDGSFFLYSKLTVDKSRWQQGNVFSCSVMHEALHNHYTQKSLSLSPGK
notes: also called E1/E4M-50%; E1/E4-MFc 50%
For the molecule B2, the Kd with TGFα [6] was 1950 nM; in the assay with TGFα [7] it was 406 nM; with HRG1β [8] it was 27.8 nM; with HRG1β [9] it was 26.6 nM; with HRG1β [10], 15.5 nM; in the assay with TGFα [11], 621 nM.
